This is one part of the list. Values were computed here from the reads of four pooled replicates and scatter widely.

The test deals with T1, Pho4 (S. cerevisiae) (UniProt P07270).
T1 sequence: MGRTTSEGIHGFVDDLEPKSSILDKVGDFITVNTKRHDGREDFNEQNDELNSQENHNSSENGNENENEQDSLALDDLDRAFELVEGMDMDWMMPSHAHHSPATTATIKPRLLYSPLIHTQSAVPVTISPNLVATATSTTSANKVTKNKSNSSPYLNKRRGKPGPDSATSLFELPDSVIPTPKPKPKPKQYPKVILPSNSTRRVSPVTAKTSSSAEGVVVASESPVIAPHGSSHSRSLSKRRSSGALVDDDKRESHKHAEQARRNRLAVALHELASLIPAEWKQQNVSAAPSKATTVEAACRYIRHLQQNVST
Kind of test: relative binding free energy (BET-seq); higher = weaker binding. The settings on record: reference: library average.
For GTGAGCACGTGTTCTT, the “relative binding free energy” value was found to be 0.01 kcal/mol.
With CTCATCACGTGGTGGG the figure was -0.11 kcal/mol; with TATCACACGTGTTGTT, -0.01 kcal/mol.
With GGCGGCACGTGTATTG the figure was 0.03 kcal/mol; with TAAATCACGTGTGTGG, 0.12 kcal/mol; with AGTTCCACGTGGTTGG, 0.08 kcal/mol.
Take TTCTACACGTGTGGGC: the “relative binding free energy” value turned out to be 0.13 kcal/mol.
With ATTGGCACGTGCTGTT, the “relative binding free energy” value is -0.02 kcal/mol.
With GAGCGCACGTGAGATG the figure was 0.37 kcal/mol.
With TGTGCCACGTGAAGTG the figure was 0.03 kcal/mol; with TATTACACGTGTTGGC, 0.12 kcal/mol.
TGTGTCACGTGCTGTT: the “relative binding free energy” value turned out to be 0.01 kcal/mol.
With GTTTACACGTGAATTT the figure was 0.24 kcal/mol.
As to AAGTTCACGTGTTAGA, the “relative binding free energy” value was determined as 0.2 kcal/mol.
With TTAGTCACGTGTGTTC the figure was 0.03 kcal/mol; with TTTGTCACGTGTTTGT, 0.15 kcal/mol.
With CCAGTCACGTGTGGGT the figure was 0.02 kcal/mol.
On to ATGGACACGTGGGGTT, for which the “relative binding free energy” value was determined as 0 kcal/mol.
Regarding ATTGTCACGTGAGAGA, the “relative binding free energy” value was found to be 0.28 kcal/mol.
For TGTGGCACGTGGTGGC, the “relative binding free energy” value was -0.07 kcal/mol.
For ATTTGCACGTGGGCGA the value was -0.24 kcal/mol; for TCCGTCACGTGGGGGG, -0.12 kcal/mol; for AGAAGCACGTGGTATT, -0.14 kcal/mol.
With TTCTGCACGTGGTGTC the figure was -0.11 kcal/mol; with TGGGTCACGTGAAGCG, 0.22 kcal/mol; with TGGTTCACGTGCGTGA, 0.21 kcal/mol.
With TGGAACACGTGATGGC the figure was 0.13 kcal/mol; with AGGGGCACGTGGTAGT, -0.11 kcal/mol.
For GTCTTCACGTGTATGG, the “relative binding free energy” value came to 0.25 kcal/mol.
CTATTCACGTGGAGTA: the “relative binding free energy” value worked out at 0.23 kcal/mol.
For AGATGCACGTGGTGGA the value was -0.04 kcal/mol; for TGTGACACGTGCCGGT, -0.03 kcal/mol; for GTTGGCACGTGGGAAG, -0.02 kcal/mol.
For TTAAACACGTGGTCTG the value was -0.08 kcal/mol; for TCGCGCACGTGGGGTA, -0.34 kcal/mol; for TGGTCCACGTGCCGGG, -0.07 kcal/mol.
Regarding GTTTTCACGTGCGTCT, the “relative binding free energy” value came out at 0.21 kcal/mol.
GTTAGCACGTGTAGGC: the “relative binding free energy” value is 0.03 kcal/mol.
For TAGACCACGTGAGGGT the value was 0.19 kcal/mol; for AACGTCACGTGTGGGT, 0.07 kcal/mol; for GAGTTCACGTGTTACG, 0.34 kcal/mol.
For TTTTACACGTGATGGC, the “relative binding free energy” value stood at 0.25 kcal/mol.
With GTTTGCACGTGTGAAA the figure was 0.22 kcal/mol; with GTGATCACGTGTTAGG, 0.31 kcal/mol; with ATGGGCACGTGCGCAG, -0.27 kcal/mol.
With TAACTCACGTGGTATG the figure was 0.21 kcal/mol.
For GTTTCCACGTGGATTT the value was 0.1 kcal/mol; for AATTGCACGTGGCTTT, -0.17 kcal/mol.
As for AGGTTCACGTGGGAGA, the “relative binding free energy” value stood at 0.18 kcal/mol.
In the case of GAATGCACGTGTTTAT, the “relative binding free energy” value is -0.01 kcal/mol.
For TTAGGCACGTGTGGGG the value was -0.01 kcal/mol; for GATTACACGTGGGATT, 0.19 kcal/mol.
With TCTTGCACGTGAGATG the figure was 0.26 kcal/mol; with TGTAACACGTGTAGCT, 0.05 kcal/mol.
For CGGGTCACGTGTGGGT the value was 0.16 kcal/mol; for TTTGCCACGTGTATAT, -0.06 kcal/mol.
For the sequence TTAGGCACGTGCAATG, the “relative binding free energy” value was -0.14 kcal/mol.
For AGTAACACGTGGTTTG the value was -0.08 kcal/mol; for TTGGTCACGTGATATA, 0.29 kcal/mol.
As for GGGGTCACGTGGCCTA, the “relative binding free energy” value came out at 0.08 kcal/mol.
For TGGGTCACGTGCTCGG the value was 0.03 kcal/mol; for AGTATCACGTGTGTCA, 0.23 kcal/mol.
For GGGTTCACGTGATAGA the value was 0.31 kcal/mol; for GCATTCACGTGGTGAT, 0.22 kcal/mol; for ATGTGCACGTGTGGAC, 0.12 kcal/mol.
With TTGAACACGTGGAGGT the figure was 0.01 kcal/mol; with CGTGTCACGTGTAAGA, 0.1 kcal/mol.
Take GTGCGCACGTGTTTAT: the “relative binding free energy” value is -0.04 kcal/mol.
As for GTATGCACGTGTTTAG, the “relative binding free energy” value is -0.03 kcal/mol.
Take CGTGTCACGTGGGGCA: the “relative binding free energy” value was -0.1 kcal/mol.
For GTCTACACGTGAAGGG the value was 0.22 kcal/mol; for TTATTCACGTGCTAGT, 0.07 kcal/mol; for TTGGTCACGTGACGGG, 0.16 kcal/mol.
Turning to GGAGTCACGTGACGTT, the “relative binding free energy” value came out at 0.23 kcal/mol.
For ATGGTCACGTGGCGAG the value was 0.12 kcal/mol; for TTGGACACGTGTGTTT, 0.12 kcal/mol.
For TGCGACACGTGGTGAT, the “relative binding free energy” value amounted to 0 kcal/mol.
For GCATGCACGTGGGTTA the value was -0.19 kcal/mol; for TAGTGCACGTGGGTAT, -0.14 kcal/mol; for ATGGCCACGTGGAGCG, -0.08 kcal/mol.
With GGTGCCACGTGGCGTT the figure was -0.17 kcal/mol.
For GATATCACGTGGGTAT, the “relative binding free energy” value is 0.11 kcal/mol.
In the case of AAATTCACGTGAAGGT, the “relative binding free energy” value worked out at 0.21 kcal/mol.
For GGGGTCACGTGTTGGC the value was 0.18 kcal/mol; for GGGTGCACGTGTACTG, -0.12 kcal/mol.
As for TTATCCACGTGGGGCG, the “relative binding free energy” value was -0.14 kcal/mol.
For TCGGACACGTGACGGG the value was 0.22 kcal/mol; for GTTGTCACGTGGCTCA, 0.03 kcal/mol; for GTGTGCACGTGATCGG, 0.09 kcal/mol.
With ATATTCACGTGGTAAT the figure was 0.19 kcal/mol.
For TACGACACGTGTGGGT the value was 0.03 kcal/mol.
Consider TGGAACACGTGGGAGA, for which the “relative binding free energy” value is -0.03 kcal/mol.
Consider TAGAGCACGTGGGAAT, for which the “relative binding free energy” value was -0.15 kcal/mol.
For CGAGGCACGTGGGGCA, the “relative binding free energy” value was -0.36 kcal/mol.
With GTTTACACGTGTTTGC the figure was 0.22 kcal/mol; with AGTTTCACGTGCTTCA, 0.36 kcal/mol; with TTTGACACGTGCTGAT, -0.06 kcal/mol.
With CGGTGCACGTGGCGGA the figure was -0.2 kcal/mol; with AGTAGCACGTGAGGTG, 0.08 kcal/mol; with GGGTGCACGTGTCTTT, -0.01 kcal/mol.
For TGTTTCACGTGAAGCT the value was 0.34 kcal/mol.
Regarding TCGTGCACGTGGTTAG, the “relative binding free energy” value is 0.03 kcal/mol.
Regarding TTGGACACGTGGTTAA, the “relative binding free energy” value was 0.11 kcal/mol.
With TTGACCACGTGTTATG the figure was 0 kcal/mol; with CGTAACACGTGTGAGG, 0.06 kcal/mol; with GTAGACACGTGATGTA, -0.01 kcal/mol.
For TGTAACACGTGTGGTC the value was 0.09 kcal/mol.
For GATGTCACGTGTCGGG the value was 0.11 kcal/mol.
Regarding ATAGGCACGTGGCGGA, the “relative binding free energy” value is -0.19 kcal/mol.
With GGAGGCACGTGTGGGT the figure was -0.02 kcal/mol.
As for GTATGCACGTGAGGGC, the “relative binding free energy” value is 0.2 kcal/mol.
With GACGGCACGTGGTCGT, the “relative binding free energy” value was found to be 0 kcal/mol.
For the sequence TTAGGCACGTGCTCGT, the “relative binding free energy” value is -0.1 kcal/mol.
With AGTTGCACGTGCAGCG the figure was 0.13 kcal/mol; with TTTTTCACGTGACTTC, 0.54 kcal/mol.

The record behind these values is the BET-seq Pho4 binding data (Le et al. 2018).
